# The supplement of paper PMC4967469
# IC50 is the fitted dose that halves viability relative to control wells, and lower means more sensitive; fits outside the tested doses are given as limits. AUC is the area under the same curve over the 256-fold range up to the top dose, as a fraction; the more sensitive the line, the further below 1. For part of these data: An inferred top dose comes from the curve model; the source does not state it.
# Assays:
# Assay in all cases: Viability of human cancer cell lines after 72 h of drug (GDSC screen)
# SGC0946 = compound: CC(C)N(CCCNC(=O)Nc1ccc(C(C)(C)C)cc1)C[C@H]1O[C@@H](n2cc(Br)c3c(N)ncnc32)[C@H](O)[C@@H]1O [SGC0946]; conditions: top dose 0.5 µM; top dose inferred
# Description: (§1)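 Human cancer cell lines in 384-well plates, medium with 10% serum, drug for 72 h over a 256-fold dose range (nine 2-fold or five 4-fold steps up to the top dose). Adherent lines were fixed and stained with the nucleic acid dye Syto60, suspension lines read with resazurin; signal relative to control wells, capped at 0 and 100%. One two-parameter sigmoid per drug and line, fitted in a mixed model over all curves with the slope shared within a line.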
# Bryostatin 1 = compound: CCC/C=C/C=C/C(=O)O[C@H]1/C(=C/C(=O)OC)C[C@H]2C[C@H]([C@@H](C)O)OC(=O)C[C@H](O)C[C@@H]3C[C@H](OC(C)=O)C(C)(C)[C@](O)(C[C@@H]4C/C(=C/C(=O)OC)C[C@H](/C=C/C(C)(C)[C@]1(O)O2)O4)O3 [Bryostatin 1]; conditions: top dose 0.008 µM; top dose inferred
# Description: as §1
# GW-2580 = compound: COc1ccc(COc2ccc(Cc3cnc(N)nc3N)cc2OC)cc1 [GW-2580]; conditions: top dose 20 µM; top dose inferred
# Description: as §1
# VX-680 = compound: Cc1cc(Nc2cc(N3CCN(C)CC3)nc(Sc3ccc(NC(=O)C4CC4)cc3)n2)n[nH]1 [VX-680]; conditions: top dose 2 µM
# Description: as §1
# Lenalidomide = compound: Nc1cccc2c1CN(C1CCC(=O)NC1=O)C2=O [Lenalidomide]; conditions: top dose 5 µM; top dose inferred
# Description: as §1
Cell Line,AUC (SGC0946),IC50 (SGC0946) [nM],AUC (Bryostatin 1),IC50 (Bryostatin 1) [nM],AUC (GW-2580),IC50 (GW-2580) [µM],AUC (VX-680),IC50 (VX-680) [nM],AUC (Lenalidomide),IC50 (Lenalidomide) [µM]
"8-MG-BA (glioma, adherent)",0.979,> 500,0.986,> 8,0.978,> 20,0.92,> 2000,0.983,> 5
"697 (lymphoblastic leukaemia, suspension)",0.987,> 500,0.965,> 8,0.987,> 20,0.165,16.2,0.979,> 5
"BC-3 (B-cell lymphoma, suspension)",–,–,0.989,> 8,0.977,> 20,0.959,> 2000,–,–
"D-502MG (glioma, adherent)",0.931,> 500,–,–,0.969,> 20,0.977,> 2000,0.952,> 5
"ES3 (Ewing sarcoma, adherent)",0.983,> 500,0.982,> 8,0.964,> 20,0.977,> 2000,–,–
"EW-12 (Ewing sarcoma, suspension)",–,–,–,–,–,–,0.977,> 2000,–,–
"GA-10 (Burkitt lymphoma, suspension)",0.991,> 500,–,–,–,–,0.225,23.4,0.99,> 5
"GCIY (stomach, adherent)",–,–,0.966,> 8,0.981,> 20,0.897,> 2000,0.976,> 5
"HCC-33 (small cell lung carcinoma, adherent)",–,–,0.985,> 8,0.975,> 20,0.918,> 2000,–,–
"HCE-4 (oesophagus, adherent)",–,–,0.992,> 8,0.984,> 20,0.799,807,–,–
"HEL (acute myeloid leukaemia, semi-adherent)",0.99,> 500,0.949,> 8,0.991,> 20,0.9,1790,–,–
"Hs-445 (Hodgkin lymphoma, suspension)",0.978,> 500,0.989,> 8,0.98,> 20,0.921,> 2000,–,–
"KALS-1 (glioma, adherent)",0.969,> 500,0.953,> 8,0.973,> 20,0.833,> 2000,–,–
"KELLY (neuroblastoma, adherent)",0.987,> 500,0.989,> 8,0.989,> 20,0.956,> 2000,–,–
"KMS-12-BM (myeloma, suspension)",–,–,0.991,> 8,0.991,> 20,0.97,> 2000,0.573,0.476
"KP-N-YS (neuroblastoma, adherent)",–,–,0.981,> 8,0.983,> 20,0.748,728,–,–
"LB647-SCLC (small cell lung carcinoma, semi-adherent)",0.983,> 500,0.985,> 8,–,–,0.481,110,0.985,> 5
"LB996-RCC (kidney, adherent)",0.981,> 500,0.983,> 8,0.982,> 20,0.943,> 2000,–,–
"LOXIMVI (melanoma, semi-adherent)",0.988,> 500,0.986,> 8,0.987,> 20,0.94,> 2000,–,–
"MOLM-13 (acute myeloid leukaemia, suspension)",0.977,> 500,0.961,> 8,0.985,> 20,0.287,32.7,–,–
"MOLT-4 (lymphoblastic leukaemia, suspension)",0.99,> 500,0.991,> 8,0.992,> 20,0.359,55.3,–,–
"MY-M12 (leukaemia, suspension)",–,–,0.867,> 8,0.669,3.94,0.415,70.7,0.977,> 5
"MZ7-mel (melanoma, adherent)",0.985,> 500,0.953,> 8,0.986,> 20,0.91,> 2000,–,–
"NALM-6 (B-cell leukaemia, suspension)",0.982,> 500,–,–,0.991,> 20,0.38,62,–,–

Cell Line,AUC (SGC0946),IC50 (SGC0946) [nM],AUC (Bryostatin 1),IC50 (Bryostatin 1) [nM],AUC (GW-2580),IC50 (GW-2580) [µM],AUC (VX-680),IC50 (VX-680) [nM],AUC (Lenalidomide),IC50 (Lenalidomide) [µM]
"NB6 (neuroblastoma, adherent)",–,–,0.979,> 8,0.984,> 20,0.694,503,0.951,> 5
"NB7 (neuroblastoma, adherent)",0.921,> 500,0.986,> 8,0.959,> 20,0.986,> 2000,–,–
"NB-4 (acute myeloid leukaemia, suspension)",0.991,> 500,0.904,7.21,0.989,> 20,0.616,244,–,–
"NCI-H510A (small cell lung carcinoma, semi-adherent)",–,–,0.99,> 8,0.929,> 20,0.622,263,0.985,> 5
"NCI-H1355 (lung adenocarcinoma, adherent)",0.961,> 500,0.905,> 8,0.974,> 20,0.886,> 2000,–,–
"NCI-H1963 (small cell lung carcinoma, suspension)",–,–,0.985,> 8,–,–,0.779,707,0.991,> 5
"NEC8 (testis, adherent)",–,–,0.987,> 8,0.978,> 20,0.97,> 2000,0.972,> 5
"OCI-LY-19 (B-cell lymphoma, suspension)",0.987,> 500,0.934,> 8,0.936,> 20,0.321,41.5,–,–
"RL95-2 (endometrium, adherent)",0.986,> 500,–,–,0.978,> 20,0.523,145,0.987,> 5
"RS4-11 (leukaemia, suspension)",0.987,> 500,0.948,> 8,0.988,> 20,0.303,37,–,–
"SIG-M5 (acute myeloid leukaemia, suspension)",–,–,0.718,1.72,0.972,> 20,0.507,130,–,–
"SR (lymphoid neoplasm, suspension)",0.977,> 500,0.979,> 8,0.964,> 20,0.365,55.2,–,–
"SU-DHL-8 (B-cell lymphoma, suspension)",0.982,> 500,0.791,3.32,0.988,> 20,0.411,72.6,–,–
"SUP-B15 (lymphoblastic leukaemia, suspension)",–,–,0.969,> 8,0.979,> 20,0.481,111,0.971,> 5
"TC-71 (Ewing sarcoma, adherent)",0.991,> 500,0.987,> 8,0.984,> 20,0.983,> 2000,–,–
"TE-10 (oesophagus, adherent)",0.986,> 500,0.987,> 8,0.985,> 20,0.808,1010,–,–
"VCaP (prostate, adherent)",0.972,> 500,0.926,> 8,0.987,> 20,0.935,> 2000,–,–
"WM793B (melanoma, adherent)",0.982,> 500,0.887,> 8,0.983,> 20,–,–,0.983,> 5
"WM1552C (melanoma, adherent)",0.986,> 500,0.984,> 8,0.986,> 20,–,–,0.988,> 5
"WM-115 (melanoma, adherent)",0.962,> 500,0.941,> 8,0.963,> 20,–,–,0.916,> 5
"YAPC (pancreas, adherent)",0.983,> 500,0.933,> 8,0.984,> 20,–,–,0.983,> 5
"YKG-1 (glioma, adherent)",0.984,> 500,0.822,4.77,0.978,> 20,–,–,0.987,> 5
"YT (lymphoid neoplasm, suspension)",0.992,> 500,0.992,> 8,0.981,> 20,–,–,0.97,> 5
"huH-1 (liver, adherent)",0.98,> 500,0.973,> 8,0.951,> 20,–,–,0.984,> 5
